# Hit rate of the full screen: of about 360,000 compounds, about 270 (0.075%) were called active. This list was built around the results that the source calls inconclusive (neither active nor inactive); the mix of calls is not that of the screen. Calls follow the shape of the dose curve; as a rule, active = well fitted activation curve with a large enough effect; inconclusive = small, poorly fitted or top-dose-only effect; inactive = no such curve, though single readings can be large or run the other way. Potencies of inconclusive entries are left out as doubtful fits.
# Molecular target: Rap guanine nucleotide exchange factor 3 (Homo sapiens) (UniProt O95398)
# UniProt O95398, sequence (O95398 whole entry, looked up): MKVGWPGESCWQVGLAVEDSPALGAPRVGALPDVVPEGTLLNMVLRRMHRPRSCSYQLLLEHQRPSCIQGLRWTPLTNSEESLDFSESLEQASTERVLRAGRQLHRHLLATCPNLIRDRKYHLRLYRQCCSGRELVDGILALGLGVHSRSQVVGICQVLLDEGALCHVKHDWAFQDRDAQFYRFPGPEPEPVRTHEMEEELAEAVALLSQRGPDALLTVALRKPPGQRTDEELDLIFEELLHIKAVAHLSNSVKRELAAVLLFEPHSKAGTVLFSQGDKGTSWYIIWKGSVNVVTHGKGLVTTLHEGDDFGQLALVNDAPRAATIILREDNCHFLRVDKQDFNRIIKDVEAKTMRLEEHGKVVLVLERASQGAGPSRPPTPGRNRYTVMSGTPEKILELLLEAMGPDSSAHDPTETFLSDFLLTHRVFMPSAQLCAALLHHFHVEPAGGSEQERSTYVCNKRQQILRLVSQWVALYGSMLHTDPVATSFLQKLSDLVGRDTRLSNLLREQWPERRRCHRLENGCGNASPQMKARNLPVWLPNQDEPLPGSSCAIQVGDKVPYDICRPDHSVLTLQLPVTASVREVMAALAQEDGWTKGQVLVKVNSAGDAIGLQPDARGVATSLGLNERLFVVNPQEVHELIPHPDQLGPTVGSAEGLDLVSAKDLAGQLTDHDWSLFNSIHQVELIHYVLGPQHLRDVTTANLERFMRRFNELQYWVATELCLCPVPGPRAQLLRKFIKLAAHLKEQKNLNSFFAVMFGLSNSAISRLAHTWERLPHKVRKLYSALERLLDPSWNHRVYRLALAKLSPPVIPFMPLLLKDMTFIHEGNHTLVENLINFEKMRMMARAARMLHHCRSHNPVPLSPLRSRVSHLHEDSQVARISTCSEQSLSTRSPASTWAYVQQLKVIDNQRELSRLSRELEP
# Test: qHTS for Agonist of cAMP-regulated guanine nucleotide exchange factor 3 (EPAC1): primary screen; also: nearly all actives have a fitted effect of over 60% in size
# Details: biochemical assay; series mostly up to 154 µM
# Outline: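 EPAC1 100 nM, Rap1B–BODIPY-GDP 250 nM, unlabeled GDP 50 uM; compound titration; 5 min RT; kinetic read ex480/em540 at 5-min intervals ×30 min; data normalized to 6.5 mM cAMP agonist control.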
# Potency is read from the fitted curve at half-maximal effect; tags tell the direction and shape of the fitted curve.
row,SMILES,Potency
1,Cc1c(CCC(=O)O)c(=O)oc2cc(OCc3ccccc3Br)ccc12,"inconclusive [activator, partial curve]"
2,CCOCCCNC(=O)c1cc2c(s1)-c1ccccc1SC2,inactive
3,Cn1c(O)c(/C=C2\C=Nc3ccccc32)sc1=Nc1ccc(C(=O)O)cc1,inactive
4,Cc1ccc(S(=O)(=O)N2CCN(c3ncnc4sccc34)CC2)cc1C,"inconclusive [activator, partial curve]"
5,CN(CC(=O)Nc1ccccc1C(F)(F)F)C(=O)c1cc(-c2cccs2)nn1-c1ccccc1,active: 112 µM
6,Cc1ccc(C(=O)Nc2sc(C)c(C)c2C(=O)c2ccccc2)cc1,"inconclusive [activator, partial curve, poor fit]"
7,Cc1ccc(C(=O)NN2C(=O)/C(=C/c3cn(C)c4ccccc34)SC2=S)cc1,active: 100 µM
8,CN=Cc1nc(-c2ccccc2)oc1O,inactive
9,CCOC(=O)C[C@@H]1OC[C@H](C)N1S(=O)(=O)c1ccc(C)cc1,"inconclusive [activator, full curve, poor fit]"
10,Oc1ccc2c(c1)C1CCCC1(N1CCOCC1)O2 (stereo unspecified),inactive
11,Oc1c(C=Nc2ccccc2)sc(=S)n1Cc1ccccc1,"inconclusive [activator, partial curve]"
12,O=C(CN1C(=O)COc2ccc(S(=O)(=O)N3CCCC3)cc21)Nc1cccc(F)c1,inactive
13,CCN(CC)S(=O)(=O)c1ccc(C(=O)NCC(=O)NCc2ccc3c(c2)OCO3)cc1,inactive
14,CCOc1ccc(CCN2C(=O)C(=O)N([C@@H](Cc3ccccc3)CN3CCC[C@H]3CN3C(=O)C(=O)NC[C@@H]3Cc3ccc(O)cc3)C[C@@H]2Cc2ccc(O)cc2)cc1,inactive
15,Cn1cc(C2=C(c3ccc(Cl)cc3Cl)C(=O)NC2=O)c2ccccc21,inactive
16,COC(=O)c1ccc(NC(=S)N2CCN(Cc3ccc(Cl)cc3)CC2)cc1,"inconclusive [activator, partial curve]"
17,CN1c2cccc3cccc(c23)N(C)C1c1cccs1,inactive
18,Cc1ccc(CNC(=O)c2ccc(C)s2)cc1,inactive
19,Clc1ccc(Nc2ncnc3ccc(Br)cc23)cc1,"inconclusive [activator, partial curve]"
20,CCCCn1c(N)c(N(CCC(C)C)C(=O)c2ccc(COc3ccccc3)o2)c(=O)[nH]c1=O,"inconclusive [activator, single point]"
21,Cn1c(=O)c(Nc2ccc(Cl)cc2)c2c3c(cccc31)C(=O)c1ccccc1-2,"inconclusive [activator, single point]"
22,COc1ccccc1C(=O)Nc1cc(C)on1,inactive
23,Cc1ccc(S(=O)(=O)N(C)C)cc1NC(=O)CSc1nc2ncc(Cl)cc2[nH]1,"inconclusive [activator, partial curve, poor fit]"
24,O=C1CC2(CCN(S(=O)(=O)c3ccccc3F)CC2)Oc2ccccc21,"inconclusive [activator, full curve, poor fit]"

row,SMILES,Potency
1,CCN(Cc1nc2ccccc2c(=O)[nH]1)C(=O)c1cccc(NC(=O)c2cccs2)c1,"inconclusive [activator, single point]"
2,COc1ccc(/C=N/NC(=O)c2cc(C34CC5CC(CC(C5)C3)C4)[nH]n2)cc1O,"inconclusive [activator, partial curve]"
3,O=[n+]1c2c(n([O-])c3cc(F)c(N4CCCC4)cc31)CCC2,"inconclusive [activator, single point]"
4,Fc1ccc(N2N=C(c3cccs3)CC2c2ccco2)c(F)c1 (stereo unspecified),"inconclusive [activator, single point]"
5,O=[N+]([O-])c1cc(S(=O)(=O)N2CCCC2)ccc1NN=C1CCCCC1,inactive
6,CN(C)c1ccc(/C=C/C(=O)c2ccc(O)cc2)cc1,"inconclusive [activator, partial curve]"
7,Cc1ccc(S(=O)(=O)N2CCOCC2)cc1C(=O)Nc1ccccc1N1CCOCC1,inactive
8,Cc1ccc(C(=O)C(C)OC(=O)Cc2n[nH]c(=O)c3ccccc23)cc1C (stereo unspecified),"inconclusive [activator, partial curve]"
9,CCc1noc(C)c1C(=O)Nc1nc2c(C)cc(C)cc2s1,active: 89.1 µM
10,COc1ccc(C2CC(c3cccs3)=NN2c2ccc(C=O)cc2)cc1 (stereo unspecified),active: 89.1 µM
11,Cc1ccc(S(=O)(=O)NC2CC(=O)N(c3ccc4c(c3)OCCO4)C2)cc1 (stereo unspecified),"inconclusive [activator, single point]"
12,C1=C(c2ccc(-c3ccccc3)cc2)Nc2ncnn2C1c1ccco1 (stereo unspecified),active: 89.1 µM
13,N=C(N)c1ccc(N=Nc2c(O)ccc3c2[nH]c2ccccc23)cc1,"inconclusive [activator, partial curve]"
14,CC(COc1ccccc1)OC(=O)Nc1ccccc1 (stereo unspecified),inactive
15,COc1ccccc1N1C(=O)c2cccc3c(N(C)CCO)ccc(c23)C1=O,"inconclusive [activator, partial curve]"
16,Cc1ccc(N=C2NC(=O)/C(=C/c3cccs3)S2)cc1C,"inconclusive [activator, partial curve]"
17,Cc1sc2ncnc(N3CCC(C(=O)Nc4ccccc4C(C)(C)C)CC3)c2c1C,"inconclusive [activator, single point]"
18,Cc1ccc(S(=O)(=O)c2ccc([N+](=O)[O-])o2)cc1,inactive
19,C=C(C)COc1ccc(-c2[nH]ncc2-c2ccccc2OC)c(O)c1,"inconclusive [activator, partial curve]"
20,CCOc1ccccc1NC(=O)COC(=O)c1ccc(S(=O)(=O)N2CCCC2)cc1,"inconclusive [activator, single point]"
21,COc1cc(S(=O)(=O)Nc2ccc(C)cc2)ccc1N=Cc1c(C)c(C#N)c(=O)n(C)c1O,"inconclusive [activator, partial curve]"
22,COc1ccc(S(=O)(=O)N2CCC3(CC2)OCCN3S(=O)(=O)c2cccs2)cc1OC,"inconclusive [activator, full curve, poor fit]"
23,CCOC(=O)c1c(NC(=O)CN2C(=O)NC3(CCCCC3C)C2=O)sc(C)c1CC (stereo unspecified),"inconclusive [activator, single point]"
24,N#Cc1cccc(NC(=O)CSc2nnc(C3CC3)n2C2CC2)c1,inactive

row,SMILES,Potency
1,COc1ccc2nc3ccccc3nc2c1NC(=O)c1ccc(Cl)cc1Cl,"inconclusive [activator, single point]"
2,Cn1c2nc(=O)n(-c3ccccc3)c(=O)c-2nc2c1CCCC2,"inconclusive [activator, partial curve]"
3,Cc1ccc(S(=O)(=O)NCCC(=O)N2CC(C)OC(C)C2)cc1 (stereo unspecified),"inconclusive [activator, single point]"
4,Cc1ccc(C(C)NC(=O)/C(C#N)=C\c2c(C)[nH]c3ccccc23)cc1 (stereo unspecified),"inconclusive [activator, partial curve]"
5,COc1ccc(/C=C(\CC(=O)O)c2nc3ccccc3o2)cc1,inactive
6,Cn1cccc1/C=C1\CCC/C(=C\c2cccn2C)C1=O,active: 100 µM
7,Cc1cc(Nc2cccc(C(=O)O)c2)n2ncnc2n1,inactive
8,Cc1cc(C)c2nc(N3C(=O)C(O)=C(C(=O)c4ccco4)C3c3ccc(O)cc3)sc2c1 (stereo unspecified),inactive
9,Cc1cn(S(=O)(=O)c2ccccc2[N+](=O)[O-])cn1,"inconclusive [activator, partial curve]"
10,CCN(CC)C(=O)C1=C(C)N(CCCOC)C(=O)C(CC(=O)NCC2CCCCC2)C1 (stereo unspecified),inactive
11,C#Cc1cccc(NC(=O)c2ccc3c(c2)C(=O)N(Cc2cccnc2)C3=O)c1,"inconclusive [activator, full curve]"
12,CC(OC(=O)CCN1C(=O)C2CC=CCC2C1=O)C(=O)Nc1cccc(C#N)c1 (stereo unspecified),"inconclusive [activator, single point]"
13,COc1cc(C(=O)OCC(=O)N2CCC(Cc3ccccc3)CC2)cc(OC)c1OC,"inconclusive [activator, partial curve]"
14,N/C(CCS(=O)(=O)c1ccc(Cl)cc1)=N\OC(=O)c1ccc(Cl)cc1,inactive
15,COCCCn1c(=O)/c(=C\c2ccccc2OC(C)C)s/c1=C(/C#N)C(=O)Nc1ccc(C(=O)O)cc1,active: 112 µM
16,COc1ccc(NS(=O)(=O)c2ccc(OC)c(N(C)S(=O)(=O)c3ccc(Cl)cc3)c2)cc1,"inconclusive [activator, single point]"
17,Cc1cccc(OC(C)C(=O)Nc2ccc(S(=O)(=O)N3CCCC3)cc2)c1 (stereo unspecified),inactive
18,COc1cccc(CNC(=O)[C@@H]2CCCN2C(=O)[C@@H]2CCCN2)c1,"inconclusive [activator, full curve, poor fit]"
19,COc1ccc(/C=C(/C(=O)c2ccc(Cl)cc2Cl)n2cncn2)cc1,inactive
20,O=C(NCc1ccc(F)cc1)c1cccc2c1C(=O)c1ccc(N3CCOCC3)cc1S2(=O)=O,"inconclusive [activator, full curve]"
21,COc1cc(OC)c(C2C(C(=O)N3CCOCC3)=C(C)NC3=C2C(=O)CC(C)(C)C3)cc1OC (stereo unspecified),"inconclusive [activator, partial curve]"
22,N#C/C(=C\c1coc2ccc(O)cc2c1=O)C(=O)Nc1nc2ccccc2s1,active: 89.1 µM
23,COC(=O)Cc1[nH]c(Cl)nc1C(N)=O,inactive

# From PubChem BioAssay AID720707 (National Center for Advancing Translational Sciences (NCATS), 2013)
